# In PubChem BioAssay AID463173 (ICCB-Longwood Screening Facility, Harvard Medical School, 2010):
# The campaign covered roughly 52,000 compounds. About 4,300 (8.3%) were called active. Cut-off read from the data, not from the text of the source: active = survival mostly below about 52% (no sharp cut-off); inactive = mostly above about 56%. The list shows a part of the results.
# System: DeltatarO mutant
# Test: growth inhibition of S. aureus wild type versus tarO mutant, primary screen, teichoic acid synthesis inhibitors, RN4220, OD600 (AID 463173)
# Conditions: OD600, 18 h, stronger effect = lower value, screened at 18.75 µg/mL (by protocol)
row,SMILES,survival
1,COC(=O)CN1C(=O)CSc2ccc(S(=O)(=O)Nc3ccc(Cl)cc3C)cc21,inactive: 124%
2,Cc1ccc2ccc(C(Nc3ccccn3)c3ccccc3)c(O)c2n1 (stereo unspecified),active: 39%
3,C=Cc1ccc(CSc2nc(-c3ccc(OC)cc3)nc3c2Cc2c(CO)cnc(C)c2O3)cc1,inactive: 93%
4,CC(C)Cc1nn2c(=O)cc(COC(=O)c3cccc(NC(=O)CCc4ccccc4)c3)nc2s1,inactive: 83%
5,COc1cccc(-c2nc3c(c(SCc4ccccc4)n2)Cc2c(CO)cnc(C)c2O3)c1,inactive: 98%
6,CC(C)(C)NC(=O)CN1CCN(c2nc(-c3ccc(Cl)cc3)cs2)CC1,inactive: 83%
7,NC(=O)c1cc(S(=O)(=O)NCc2ccccc2)cs1,inactive: 110%
8,CN(C(=O)CCNC(=O)Cn1cnc2ccccc2c1=O)c1ccccc1F,inactive: 69%
9,CCCn1c(=O)n(-c2ccccc2)c(=O)c2sc3ccccc3c21,inactive: 83%
10,CCOc1ccc(CCNC(=O)CN2CCN(Cc3ccc(F)cc3Cl)C2=O)cc1OCC,inactive: 75%
11,C=CCc1c(C)nc2nc(SCC(=O)Nc3ccccc3CC)nn2c1C,inactive: 55%
12,Cc1ccc(Nc2c(-c3ccc(C)cc3)nc3cnccn23)cc1,active: 35%
13,COc1ccccc1CNC(=O)Cn1ncc2c(=O)oc3ccc(C)cc3c21,inactive: 78%
14,CCCCC(=O)Nc1cccc(OCc2cc(=O)n3ccccc3n2)c1,inactive: 87%
15,COc1cc(C(=O)Nc2cc(C)ccc2OCc2cc(=O)n3cc(C)sc3n2)cc(OC)c1OC,inactive: 89%
16,Cc1ccccc1CS(=O)(=O)Cc1ccc(C(=O)NCCc2ccccc2)o1,inactive: 86%
17,COc1ccccc1C(=O)Nc1nc2ccc(S(=O)(=O)N3CCCC3)cc2s1,inactive: 73%
18,NCCc1nnc(SCc2ccc(Cl)cc2)o1,inactive: 159%
19,COc1ccccc1OCc1ccoc1C(=O)O,inactive: 92%
20,COc1ccc(C(=O)CN2C(=O)N(c3cc(C)cc(C)c3)S(=O)(=O)c3ccccc32)cc1,inactive: 67%
21,Cc1cccc(NCc2ccc(N(C)C)cc2)n1,inactive: 83%
22,Cc1cccc(NC(=O)C(=O)NCC(c2cccnc2)N2CCOCC2)c1 (stereo unspecified),inactive: 76%
23,COc1ccc(C)cc1NC(=O)C(=O)NCCc1csc(-c2ccc(C)cc2)n1,inactive: 102%
24,CS(=O)(=O)N1CCN(C2CCCCC2)CC1,inactive: 116%
25,Cc1ccc(NC(=O)CSc2nc3c(c(=O)[nH]2)CN(Cc2ccc4c(c2)OCO4)CC3)cc1C,inactive: 77%
26,Cn1c(=O)c2c(SCC(=O)NCc3ccco3)nc(-c3ccccc3Cl)nc2n(C)c1=O,inactive: 66%
